# Results as given in the supplement of paper PMC10037445.
# Over roughly 2,900 compounds, “IRF Lucia reporter activity, fold change vs agonist alone” has its median near 0.9; the highest 2% begin near 2.8. The list shows a part of the results.
# Experiments:
# RAW-Dual [1] = experiment: IRF Lucia reporter activity, fold change vs agonist alone; cytotoxicity flag (confluency mask): not cytotoxic; higher = enhanced IRF activity
# Procedure, shortened: (§1)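 After 50 nL of library stock was delivered by pin tool to RAW-Dual macrophages (50,000 cells/well, DMEM, 384-well plates), a PRR agonist was added 1 h later and the plates were kept at 37 °C, 5% CO2. Twenty hours later, IRF was read from supernatant by QuantiLuc luminescence and NF-κB by QuantiBlue absorbance at 620 nm. Reporter activity is stated as fold change over agonist-alone wells. Wells with IncuCyte confluency under 70% of agonist controls in both mask sets were counted as cytotoxic.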
# RAW-Dual [2] = experiment: IRF Lucia reporter activity, fold change vs agonist alone; higher = enhanced IRF activity; conditions: agonist: MPLA (TLR4) […]
# Procedure, shortened: as §1
# RAW-Dual [3] = experiment: IRF Lucia reporter activity, fold change vs agonist alone; cytotoxicity flag (confluency mask): cytotoxic (confluency <70% of control); higher = enhanced IRF activity
# Procedure, shortened: as §1
# [4] = agonist: 3'3'-cGAMP (STING) 10 ug/mL
# [5] = library stock concentration (final ~1000-fold dilution): 10 mM, cytotoxicity flag (confluency mask): not cytotoxic
# [6] = library stock concentration (final ~1000-fold dilution): 2 mM, cytotoxicity flag (confluency mask): not cytotoxic
compound,measurement,setting,value
O=c1cc(-c2ccc(O)c(O)c2O)oc2ccccc12 (library stock concentration (final ~1000-fold dilution): 10 mM),IRF Lucia reporter activity,RAW-Dual [1]; [4],0.749
same,IRF Lucia reporter activity,RAW-Dual [1]; agonist: LPS (TLR4) 0.1 ug/mL,0.923
Cl.NC12CC3CC(CC(C3)C1)C2 (library stock concentration (final ~1000-fold dilution): 10 mM),IRF Lucia reporter activity,RAW-Dual [1]; [4],1.06
same,IRF Lucia reporter activity,RAW-Dual [1]; agonist: LPS (TLR4) 0.1 ug/mL,1.14
Cl.NC12CC3CC(CC(C3)C1)C2,IRF Lucia reporter activity,RAW-Dual [2]; [5],1.07
Cc1cnc(Nc2ccc(F)cc2Cl)nc1-c1c[nH]c(C(=O)NC(CO)c2cccc(Cl)c2)c1 (stereo unspecified) (library stock concentration (final ~1000-fold dilution): 10 mM),IRF Lucia reporter activity,RAW-Dual [1]; [4],0.474
same,IRF Lucia reporter activity,RAW-Dual [1]; agonist: LPS (TLR4) 0.1 ug/mL,1.16
CCOC(=O)C1=CC2(CC)CCCN3CCc4c(n1c1ccccc41)C32 (stereo unspecified) (library stock concentration (final ~1000-fold dilution): 2 mM),IRF Lucia reporter activity,RAW-Dual [1]; [4],0.863
same,IRF Lucia reporter activity,RAW-Dual [1]; agonist: LPS (TLR4) 0.1 ug/mL,0.956
CCOC(=O)C1=CC2(CC)CCCN3CCc4c(n1c1ccccc41)C32 (stereo unspecified),IRF Lucia reporter activity,RAW-Dual [2]; [6],1.3
CC(C)(C)c1ccc(C(=O)CCCN2CCC(OC(c3ccccc3)c3ccccc3)CC2)cc1 (library stock concentration (final ~1000-fold dilution): 2 mM),IRF Lucia reporter activity,RAW-Dual [1]; [4],0.24
same,IRF Lucia reporter activity,RAW-Dual [1]; agonist: LPS (TLR4) 0.1 ug/mL,1.13
CC(C)(C)c1ccc(C(=O)CCCN2CCC(OC(c3ccccc3)c3ccccc3)CC2)cc1,IRF Lucia reporter activity,RAW-Dual [2]; [6],1.26
NC(Cc1ccccc1)C(=O)O (stereo unspecified),IRF Lucia reporter activity,"RAW-Dual [2]; library stock concentration (final ~1000-fold dilution): 2 mM water, cytotoxicity flag (confluency mask): not cytotoxic",1.24
NC(Cc1ccccc1)C(=O)O (stereo unspecified) (library stock concentration (final ~1000-fold dilution): 2 mM water),IRF Lucia reporter activity,RAW-Dual [1]; [4],0.937
same,IRF Lucia reporter activity,RAW-Dual [1]; agonist: LPS (TLR4) 0.1 ug/mL,0.789
Cc1cc(N=Nc2ccc(S(=O)(=O)Nc3ccccn3)cc2)c(N)cc1O (library stock concentration (final ~1000-fold dilution): 10 mM),IRF Lucia reporter activity,RAW-Dual [1]; [4],0.382
same,IRF Lucia reporter activity,RAW-Dual [1]; agonist: LPS (TLR4) 0.1 ug/mL,0.293
Cc1cc(N=Nc2ccc(S(=O)(=O)Nc3ccccn3)cc2)c(N)cc1O,IRF Lucia reporter activity,RAW-Dual [2]; [5],0.329
CC1(C)CC1C(=O)N/C(=C\CCCCSCC(N)C(=O)O)C(=O)O (stereo unspecified) (library stock concentration (final ~1000-fold dilution): 10 mM),IRF Lucia reporter activity,RAW-Dual [1]; [4],1.03
same,IRF Lucia reporter activity,RAW-Dual [1]; agonist: LPS (TLR4) 0.1 ug/mL,0.852
CC1(C)CC1C(=O)N/C(=C\CCCCSCC(N)C(=O)O)C(=O)O (stereo unspecified),IRF Lucia reporter activity,RAW-Dual [2]; [5],1.04
CCOC(=O)C(CCc1ccccc1)NC(C)C(=O)N1Cc2ccccc2CC1C(=O)O.Cl (stereo unspecified),IRF Lucia reporter activity,RAW-Dual [2]; [5],0.995
CCOC(=O)C(CCc1ccccc1)NC(C)C(=O)N1Cc2ccccc2CC1C(=O)O.Cl (stereo unspecified) (library stock concentration (final ~1000-fold dilution): 10 mM),IRF Lucia reporter activity,RAW-Dual [1]; [4],1
same,IRF Lucia reporter activity,RAW-Dual [1]; agonist: LPS (TLR4) 0.1 ug/mL,1.01
COC(=O)Nc1ccc(-c2nc(N3CCOCC3)c3cnn(C4CCN(C(=O)OC)CC4)c3n2)cc1,IRF Lucia reporter activity,RAW-Dual [2]; [5],0.843
COC(=O)Nc1ccc(-c2nc(N3CCOCC3)c3cnn(C4CCN(C(=O)OC)CC4)c3n2)cc1 (library stock concentration (final ~1000-fold dilution): 10 mM),IRF Lucia reporter activity,RAW-Dual [1]; [4],0.78
same,IRF Lucia reporter activity,RAW-Dual [1]; agonist: LPS (TLR4) 0.1 ug/mL,1.12
CS(=O)(=O)CCNCc1ccc(-c2ccc3ncnc(Nc4ccc(OCc5cccc(F)c5)c(Cl)c4)c3c2)o1.Cc1ccc(S(=O)(=O)O)cc1.Cc1ccc(S(=O)(=O)O)cc1 (library stock concentration (final ~1000-fold dilution): 10 mM),IRF Lucia reporter activity,RAW-Dual [1]; [4],0.264
same,IRF Lucia reporter activity,RAW-Dual [1]; agonist: LPS (TLR4) 0.1 ug/mL,3.36
CS(=O)(=O)CCNCc1ccc(-c2ccc3ncnc(Nc4ccc(OCc5cccc(F)c5)c(Cl)c4)c3c2)o1.Cc1ccc(S(=O)(=O)O)cc1.Cc1ccc(S(=O)(=O)O)cc1,IRF Lucia reporter activity,RAW-Dual [2]; [5],1.28
Nc1ccc(S(=O)(=O)Nc2cnc3ccccc3n2)cc1,IRF Lucia reporter activity,"RAW-Dual [2]; library stock concentration (final ~1000-fold dilution): 10 mM water, cytotoxicity flag (confluency mask): not cytotoxic",1.27
Nc1ccc(S(=O)(=O)Nc2cnc3ccccc3n2)cc1 (library stock concentration (final ~1000-fold dilution): 10 mM water),IRF Lucia reporter activity,RAW-Dual [1]; [4],1.33
same,IRF Lucia reporter activity,RAW-Dual [1]; agonist: LPS (TLR4) 0.1 ug/mL,0.922
O=C1C(CCS(=O)c2ccccc2)C(=O)N(c2ccccc2)N1c1ccccc1 (stereo unspecified) (library stock concentration (final ~1000-fold dilution): 10 mM),IRF Lucia reporter activity,RAW-Dual [1]; [4],0.867
same,IRF Lucia reporter activity,RAW-Dual [1]; agonist: LPS (TLR4) 0.1 ug/mL,1.38
O=C1C(CCS(=O)c2ccccc2)C(=O)N(c2ccccc2)N1c1ccccc1 (stereo unspecified),IRF Lucia reporter activity,RAW-Dual [2]; [5],1
NC(=O)OCC(COC(N)=O)c1ccccc1 (library stock concentration (final ~1000-fold dilution): 10 mM),IRF Lucia reporter activity,RAW-Dual [1]; [4],0.964
same,IRF Lucia reporter activity,RAW-Dual [1]; agonist: LPS (TLR4) 0.1 ug/mL,0.998
NC(=O)OCC(COC(N)=O)c1ccccc1,IRF Lucia reporter activity,RAW-Dual [2]; [5],0.976
Cl.Cl.O=C(O)COCCN1CCN(C(c2ccccc2)c2ccc(Cl)cc2)CC1 (stereo unspecified) (library stock concentration (final ~1000-fold dilution): 10 mM),IRF Lucia reporter activity,RAW-Dual [1]; [4],1.07
same,IRF Lucia reporter activity,RAW-Dual [1]; agonist: LPS (TLR4) 0.1 ug/mL,0.745
Cl.Cl.O=C(O)COCCN1CCN(C(c2ccccc2)c2ccc(Cl)cc2)CC1 (stereo unspecified),IRF Lucia reporter activity,RAW-Dual [2]; [5],1.01
OC(CC1c2ccccc2-c2cncn21)C1CCCCC1 (stereo unspecified) (library stock concentration (final ~1000-fold dilution): 10 mM),IRF Lucia reporter activity,RAW-Dual [1]; [4],1.21
same,IRF Lucia reporter activity,RAW-Dual [1]; agonist: LPS (TLR4) 0.1 ug/mL,1.18
OC(CC1c2ccccc2-c2cncn21)C1CCCCC1 (stereo unspecified),IRF Lucia reporter activity,RAW-Dual [2]; [5],1.12
[O-][n+]1cccc(CO)c1,IRF Lucia reporter activity,RAW-Dual [2]; [5],1.12
[O-][n+]1cccc(CO)c1 (library stock concentration (final ~1000-fold dilution): 10 mM),IRF Lucia reporter activity,RAW-Dual [1]; [4],1.12
same,IRF Lucia reporter activity,RAW-Dual [1]; agonist: LPS (TLR4) 0.1 ug/mL,1.2
O=C1CCN(c2ccccc2)N1 (library stock concentration (final ~1000-fold dilution): 10 mM),IRF Lucia reporter activity,RAW-Dual [1]; [4],0.878
same,IRF Lucia reporter activity,RAW-Dual [1]; agonist: LPS (TLR4) 0.1 ug/mL,1.27
O=C1CCN(c2ccccc2)N1,IRF Lucia reporter activity,RAW-Dual [2]; [5],0.925
CCC(=C(c1ccccc1)c1ccc(OCCN(C)C)cc1)c1ccccc1,IRF Lucia reporter activity,"RAW-Dual [2]; library stock concentration (final ~1000-fold dilution): 10 mM, cytotoxicity flag (confluency mask): cytotoxic (confluency <70% of control)",1.07
CCC(=C(c1ccccc1)c1ccc(OCCN(C)C)cc1)c1ccccc1 (library stock concentration (final ~1000-fold dilution): 10 mM),IRF Lucia reporter activity,RAW-Dual [3]; [4],0.478
same,IRF Lucia reporter activity,RAW-Dual [3]; agonist: LPS (TLR4) 0.1 ug/mL,0.996
C/C(=C\C(=O)Nc1ccccc1C(=O)O)c1ccc2ccccc2c1 (library stock concentration (final ~1000-fold dilution): 10 mM),IRF Lucia reporter activity,RAW-Dual [1]; [4],0.961
same,IRF Lucia reporter activity,RAW-Dual [1]; agonist: LPS (TLR4) 0.1 ug/mL,1.26
C/C(=C\C(=O)Nc1ccccc1C(=O)O)c1ccc2ccccc2c1,IRF Lucia reporter activity,RAW-Dual [2]; [5],0.935
O=C(c1ccc(/C=C/c2n[nH]c3ccccc23)cc1)N1CCNCC1,IRF Lucia reporter activity,RAW-Dual [2]; [5],0.0347
O=C(c1ccc(/C=C/c2n[nH]c3ccccc23)cc1)N1CCNCC1 (library stock concentration (final ~1000-fold dilution): 10 mM),IRF Lucia reporter activity,RAW-Dual [1]; [4],0.0176
same,IRF Lucia reporter activity,RAW-Dual [1]; agonist: LPS (TLR4) 0.1 ug/mL,0.0178
